# The supplement of paper PMC11417369
# The other results are listed elsewhere or left out.
# Test system: PF3D7_0420300 AP2 domain 1 (GST-tagged)
# Assay: gcPBM binding intensity (ln(normalized median fluorescence intensity)); higher = stronger DNA binding
# Summary of the method: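 Using an Agilent 4 × 180k array, primer-extended double-stranded 36-bp intergenic genomic probes and negative controls were exposed for 1 h to GST-fused P. falciparum DNA-binding domains expressed in E. coli. Binding was carried out in 1× PBS with 1% milk, 0.2 mg/ml BSA, 0.5% salmon testes DNA and 0.03% Triton X-100, and protein was detected with Alexa488 anti-GST antibody and a 488 nm scan. Binding intensity is the highest Masliner-normalised natural-log median intensity across replicate spots of either probe orientation.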
row,Sequence,gcPBM binding intensity (ln)
1,ATTTAATACATACATTCACACACACTAATTGTATAT [CACACA_site9361],9.99
2,AAAAAAAAAAAAACTTGTACATGTGATATTATCTAT [XGTACX_site6169],9.24
3,TTAAATGTTCTATATACATGCAATGATATGTTTCTG [TGCATGCA_site317],9.11
4,TCAAAGTAGGCTTATATGCACACTTTGAAATATTAT [CACACA_site1920],9.11
5,GATAATACATAAATTTATAAGTGGAAGAATAAATAA [CACACA_negctrl_site698],9.32
6,GAAATATTACAAAGTACATGCAACGAAAATTTCAGT [TGCATGCA_site608],9.4
7,ACAAACAAATAAATATGTACGAATAAATAAAATTTT [XGTACX_site4664],9.54
8,CTTTTAGAATAATCAGTGCAAAAAAAAAAAAAAAAA,8.53
9,TTTTTTTTCAAAAATACAAAAAAAAAAGAAAAAAAC [CACACA_negctrl_site625],9.22
10,TGCTCTAATTTATATACACACAAATATGTACACATA [CACACA_site7845],9.56
11,TTTCATAAATAATAAAATAAAATATGAAGCAAAAGG [CACACA_negctrl_site1767],9.39
12,TAATTTTTTTAAGAGAGTACATGACTCAACAGTTTA [XGTACX_site3103],8.76
13,TTTTTTTTTTTTTGGAGTACATGTTTATAACATAAT [XGTACX_site1799],8.98
14,TTATATCCAACTTGAAAAAAGGTATATGTTTATATA [CACACA_negctrl_site1746],8.99
15,TACACCCACATATATATACACACTTTTATTTAAATA [CACACA_site1596],9.61
16,AATATATATATATGTGCACACATATATAATATGTAT [CACACA_site716],9.62
17,AAAAAAAATAATGTTGCACACAACAACAAACAAAAA [CACACA_site3290],9.51
18,CAATATGGAAAATAAAGTACGCACACAAAAATTCTC [XGTACX_site4793],9.63
19,TAGATAAAATGAACATGTACTCATCTTAATATATAT [XGTACX_site34],9.21
20,ATGTGTTTCTTCAATTGTACTAAAAGGTATATATTG [XGTACX_site4608],9.45
21,TTATTCTAAAAATATACACACAACAACAAACAAACA [CACACA_site1543],9.92
22,TATATAATATATAAATGTACTTTTGTCTTATATGAA [XGTACX_site7211],8.93

row,Sequence,gcPBM binding intensity (ln)
1,TAGTAACTTGTATTCACACAAATTATATTATATTAC [CACACA_site5041],9.24
2,ATACTATAATATAAAACACACATATGTACCTTCTAA [CACACA_site7323],9.54
3,ATTATTTAAATTTAACGTACGGAATAAGACATAGAT [XGTACX_site8622],9.6
4,TTCAGGTAATAACATTGTACATGTGTATCATAATTA [XGTACX_site6740],9.24
5,AATCATTAAAGCATAATGTTTATGATCAATATGAAA [CACACA_negctrl_site887],9.01
6,TTTTTTTTTTTTTTTTTTTTACAGAAAAATATTAAA [CACACA_negctrl_site128],8.38
7,ATAAAAAAAAAAAATACACACATATATTTATTTATA [CACACA_site6903],9.37
8,TTTATATGGATTTTTTTTTAATATTTCTTTTAATTT [TGCATGCA_negctrl_site361],9.15
9,TAAAAAAAAAAAAAAAGTACAAAAAAAATATTTTTT [XGTACX_site7941],9.13
10,ATATGCTATTTACTAGTGCAAAATATTTAAAATATG [GTGCAC_site9517],9.06
11,TTAATATAAGCAAATACACACACACCGATATATATA [CACACA_site9269],10.2
12,GTTGCACAATGTTACACACACAATATAGATCGTTAA [CACACA_site6717],9.76
13,GGCATGACTATCTGCACACATAAAAATAAGAAATAC [CACACA_site841],9.56
14,GATTTATACAAATATGTACACACTAATTATATATTA [CACACA_site8045],9.47
15,ATAAACAGAAAAAAAAAAAAAAAAAAAAAAAAAAAA [CACACA_negctrl_site143],8.62
16,TTTTTTTTCTCACAAAAAATAATTAACAAAAAGGAA [XGTACX_negctrl_site154],8.68
17,CAATGTTAACATATTACACACATATGTATATATAAT [CACACA_site8878],9.62
18,GACAACTCTTTTCATACACACAAAAAAAAAAAAATA [CACACA_site2361],9.4
19,TCACATATATATTAATGTACATATATTTTTTATGTA [XGTACX_site5125],9.25
20,GATATATCCTATGTTATTTTTATGGTGTAATTTAGT [XGTACX_negctrl_site112],9.69
21,TTTTTTTTATGTATCACACATAATTTTTTATTATGA [CACACA_site5534],9.05
22,AGAAAGAAAATATATACACACAAAAAAAAATATATA [CACACA_site1412],9.93

row,Sequence,gcPBM binding intensity (ln)
1,CATCCACAAATATGTACACACATATATAAATATGTA [CACACA_site7407],9.48
2,ATAATAACAAGGCGCTGTACTGTACCGTTTTTCATA [XGTACX_site6135],9.37
3,TATCATATTTTTATATGTACATAACATAAAAAAAAA [XGTACX_site2152],8.89
4,AACAGACAAAGACACACACACATACATACATACATA [CACACA_site6351],9.88
5,TGATTTGTGCCGATTTGTACACATTTATATATATAT [XGTACX_site2154],9.54
6,TACATACATACATACACACACATATATATATATATA [CACACA_site1944],9.63
7,ATTTTTTCATATTCTACACACGTGAACAAATGAGTC [CACACA_site5635],9.35
8,TTCTTTTTAAATTACACACACATATATATCTGTATA [CACACA_site5863],9.89
9,ATGAACATACAATATACACACATATAGATTTATATT [CACACA_site6524],9.73
10,TCATTATTAATATGTAGTACATTATATGATATGTAT [XGTACX_site8978],9.29
11,TAAAGGATTTTCGAAGCATGCCACCTGTGACATACT [TGCATGCA_site130],9.02
12,TTTATACAATTAGACACACACAAAAAGTATATATAT [CACACA_site1082],9.89
13,CATTCAAAGAAAAACTGTACGTGTAGCAAACGTCAT [XGTACX_site2576],9.3
14,ATATAATTACATTGATGTACACGAAATGATTAACAT [XGTACX_site5183],9.26
15,ATGGGTATATTTCCACGTACAAAAAATCCGAATTGC [XGTACX_site1490],9.23
16,CAAATACCCGGACACACACACACAAAAAAAAAAAAA [CACACA_site4441],9.99
17,ATTATTAATAATTGTGTGCACAAATATTTATATGCT,9.34
18,ATATCAATATAAAGTACACACTATAGTATGTATTAT [CACACA_site5286],9.6
19,ATATTGTATTATCTTTATGTACCAAAAAAAAAAAAA [CACACA_negctrl_site1036],8.91
20,ATAAAAATAAAAAACTGTACATACAAGATGTTACAG [XGTACX_site6690],9.19
21,ATGCTTCCTTAGGAATGTACACACATATATAATATG [XGTACX_site873],9.56
22,AAATAATATTTTACATGTACATAATAATTATTGGAT [XGTACX_site2783],9.3

row,Sequence,gcPBM binding intensity (ln)
1,TAAATATTTAAATATTGTACTAGGTATAATTGAATA [XGTACX_site3604],9.1
2,TTATTGTACTTGCTCGCATGCAATAAAAATATATTA [TGCATGCA_site580],9.04
3,GTATATATTAAAAAAAAAAAAAAAAAATTAAAATTA [CACACA_negctrl_site572],8.9
4,GGAATATTAATAAGAGTGCATTTTGTATTCAATATG,9.18
5,TAGACTGGACATTAATGTACATAAATATATATGTAT [XGTACX_site7726],9.21
6,TATAAGAAAAATAACACACACATAAACATATATACA [CACACA_site2785],10.2
7,AAAAAAAAAATTCATTGTACATATATATATATATAT [XGTACX_site8346],8.96
8,ATATATATATATATATGTACTTATTTATATATTTAT [XGTACX_site7811],9.17
9,TGGTTATTTATCTTTATTATAAATATTTACAAATAA [CACACA_negctrl_site1773],9.11
10,ATAAGAAGAAGAAAAACACACATATGTAGATATATA [CACACA_site7469],9.62
11,ATCTATTCACACTTTTAAAAATTAAATATATTATAT [TGCATGCA_negctrl_site610],9.19
12,TAATTTTTTTTTTATAGTACACATATTAAAGAATTA [XGTACX_site2485],8.84
13,ATATATATAAACAAAAGTACATATATAAATTCATTT [XGTACX_site3482],9.25
14,TCTTATATTATATTGTGTATTAAAATTTAACTTCAA [TGCATGCA_negctrl_site565],9.06
15,TTAAAGTTACATTCGACACACACATAACAACTAAAT [CACACA_site9130],9.81
16,ATATATGTATATATGTACATGAATATATAAAGAAAA [CACACA_negctrl_site315],9.33
17,ACAAATAAATAAATATGTACTTAATTATATAATTGA [XGTACX_site5626],9.18
18,GTTTATATTTAATTTTTTTGTTTTTTTGTGTAATTC [XGTACX_negctrl_site194],9.5
19,TATTTATACTAATATGCATGTAATCGAAATACAGCT [TGCATGCA_site457],9.09
20,ATTATCCATCAAAAGGTGCAAATTTTTAATTATAAA [GTGCAC_site9932],8.94
21,AAAGATGATAAAATATGTACACACAGTTTATACATT [XGTACX_site8703],9.39
22,TATATATATATATGTAGTACTTTACAAAATAATTCG [XGTACX_site5322],8.99
